The source of these data is the BET-seq Pho4 binding data (Le et al. 2018).

This is one part of the list. Values were computed here from the reads of four pooled replicates and scatter widely.

In the test the target is T1, Pho4 (S. cerevisiae) (UniProt P07270).
T1 sequence: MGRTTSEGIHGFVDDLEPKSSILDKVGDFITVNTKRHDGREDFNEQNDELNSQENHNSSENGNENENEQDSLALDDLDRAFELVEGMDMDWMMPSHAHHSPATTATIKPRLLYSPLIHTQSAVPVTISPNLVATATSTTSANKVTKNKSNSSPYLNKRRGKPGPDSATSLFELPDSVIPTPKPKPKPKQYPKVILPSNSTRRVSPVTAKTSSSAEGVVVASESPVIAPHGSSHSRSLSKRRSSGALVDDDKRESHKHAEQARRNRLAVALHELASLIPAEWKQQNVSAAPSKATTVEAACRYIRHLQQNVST
As to the kind of experiment: relative binding free energy (BET-seq); higher = weaker binding. The settings on record: reference: library average.
Consider TGAGTCACGTGATGGG, for which the “relative binding free energy” value is 0.27 kcal/mol.
In the case of TCTGTCACGTGGTGAA, the “relative binding free energy” value was found to be 0.04 kcal/mol.
To AAATCCACGTGTGGTG belongs 0.17 kcal/mol.
The figure for GATGACACGTGGGTCG is -0.16 kcal/mol.
To TAGAGCACGTGTAGGG belongs -0.15 kcal/mol.
As for TGAAGCACGTGGTGGT, the “relative binding free energy” value was 0.02 kcal/mol.
The figure for TTTGACACGTGTCAGG is -0.03 kcal/mol; for TGTCTCACGTGTTCAT it is 0.24 kcal/mol.
The figure for GGCTTCACGTGTTCTG is 0.2 kcal/mol.
Regarding CGGGGCACGTGTGCGC, the “relative binding free energy” value was -0.18 kcal/mol.
As to GTATTCACGTGCAGTT, the “relative binding free energy” value was 0.21 kcal/mol.
Consider GTGGGCACGTGGAACA, for which the “relative binding free energy” value came out at 0 kcal/mol.
Take TTGAGCACGTGTTTAT: the “relative binding free energy” value was -0.07 kcal/mol.
To TTCGGCACGTGCGGAG belongs -0.04 kcal/mol; to TATGTCACGTGGCAGG, -0.04 kcal/mol; to TTATGCACGTGTTACT, -0.14 kcal/mol.
With GGGTTCACGTGTGACT, the “relative binding free energy” value came out at 0.42 kcal/mol.
Consider GTTCGCACGTGGCGGG, for which the “relative binding free energy” value came to 0 kcal/mol.
To ACTCGCACGTGTTTGT belongs 0.01 kcal/mol.
TATGGCACGTGACTTG: the “relative binding free energy” value was found to be 0.09 kcal/mol.
Turning to CTGGTCACGTGCTGAG, the “relative binding free energy” value turned out to be 0.2 kcal/mol.
As for TGAGGCACGTGGTCGA, the “relative binding free energy” value is -0.14 kcal/mol.
The figure for AGCGGCACGTGGGTTT is -0.11 kcal/mol.
To TGCTACACGTGGCTGG belongs 0.15 kcal/mol; to TGTGGCACGTGACAGG, -0.01 kcal/mol.
To TGGAGCACGTGTGGCT belongs -0.07 kcal/mol.
With TCCAACACGTGGGGGT, the “relative binding free energy” value was -0.03 kcal/mol.
Consider GTTTTCACGTGGGCTC, for which the “relative binding free energy” value was determined as 0.35 kcal/mol.
The figure for GTGTTCACGTGCGCGG is 0.21 kcal/mol.
To CTAGTCACGTGTGGAT belongs -0.03 kcal/mol.
To GCGTGCACGTGGGTTG belongs -0.12 kcal/mol.
Take GTTTACACGTGATTTT: the “relative binding free energy” value was 0.27 kcal/mol.
Take GTTGACACGTGGCTGT: the “relative binding free energy” value was 0.05 kcal/mol.
On to GTGCGCACGTGTACGG, for which the “relative binding free energy” value is -0.02 kcal/mol.
For the sequence GTTACCACGTGAGGAT, the “relative binding free energy” value was determined as 0.33 kcal/mol.
Take AGTTACACGTGTTTTA: the “relative binding free energy” value was determined as 0.15 kcal/mol.
The figure for ATGAACACGTGATTTT is 0.14 kcal/mol; for TTTGTCACGTGGCGGG it is 0.13 kcal/mol; for CGGCACACGTGGAGGG it is -0.06 kcal/mol.
Regarding ATAGTCACGTGAAGGG, the “relative binding free energy” value is 0.36 kcal/mol.
With TAGCGCACGTGGTTAT, the “relative binding free energy” value was -0.17 kcal/mol.
As for GGTTTCACGTGGCCGT, the “relative binding free energy” value was determined as 0.34 kcal/mol.
To GACGTCACGTGGTATT belongs 0.29 kcal/mol; to TTTCACACGTGATTTT, 0.29 kcal/mol.
In the case of TGCAGCACGTGAGTGG, the “relative binding free energy” value stood at 0.1 kcal/mol.
The figure for GGAGCCACGTGTGGGT is 0.07 kcal/mol; for AGTAGCACGTGTGTAG it is -0.1 kcal/mol; for AAGTTCACGTGGCGTA it is 0.33 kcal/mol.
The figure for AATTGCACGTGTGTAT is -0.01 kcal/mol; for AGATACACGTGATTGT it is 0.02 kcal/mol.
To TTATACACGTGGGGTG belongs -0.23 kcal/mol; to GTTATCACGTGCTGGC, 0.25 kcal/mol.
For the sequence ACGTTCACGTGTAAGT, the “relative binding free energy” value amounted to 0.27 kcal/mol.
To GTGGGCACGTGATCTG belongs 0.1 kcal/mol; to GTGTACACGTGGCGAA, 0.02 kcal/mol.
The figure for ATGGGCACGTGGTAGA is -0.2 kcal/mol; for AAAGTCACGTGTTGTG it is 0.15 kcal/mol.
To TGTATCACGTGGCGAA belongs 0.04 kcal/mol.
TTAGTCACGTGGCTAA: the “relative binding free energy” value is -0.07 kcal/mol.
As for TGGGCCACGTGTGGCT, the “relative binding free energy” value was -0.09 kcal/mol.
To TGCGGCACGTGCGGTA belongs -0.18 kcal/mol; to TTGTGCACGTGGTGCT, -0.04 kcal/mol; to ACTGGCACGTGGGATA, -0.27 kcal/mol.
To CTTAGCACGTGGTTTA belongs -0.13 kcal/mol.
To TGGTGCACGTGGGTTG belongs -0.11 kcal/mol; to ACGGGCACGTGTGAGG, -0.11 kcal/mol; to AGATGCACGTGTTAGG, 0.03 kcal/mol.
Consider AAAGTCACGTGAAAGG, for which the “relative binding free energy” value stood at 0.4 kcal/mol.
The figure for AGGTGCACGTGGAGTA is -0.07 kcal/mol.
To TATTGCACGTGGAGTG belongs 0.02 kcal/mol; to TCACTCACGTGTGGTG, 0.31 kcal/mol; to AGTTTCACGTGCATTA, 0.2 kcal/mol.
To GTATGCACGTGATTTC belongs 0.23 kcal/mol; to GAAGGCACGTGAGGGA, 0.01 kcal/mol.
Turning to TATGACACGTGGATGG, the “relative binding free energy” value is -0.08 kcal/mol.
The figure for GAAGGCACGTGGTGTA is -0.15 kcal/mol; for GTGTGCACGTGGTAGA it is -0.05 kcal/mol.
To GTGTCCACGTGTGTCG belongs 0.07 kcal/mol.
To ATTAGCACGTGAGTGG belongs 0.15 kcal/mol; to GGGACCACGTGGAGGG, -0.08 kcal/mol.
Regarding CTTAGCACGTGGGTAT, the “relative binding free energy” value is -0.22 kcal/mol.
Turning to TATGGCACGTGGTTCT, the “relative binding free energy” value was -0.08 kcal/mol.
With TCTGACACGTGATTGT, the “relative binding free energy” value came to 0.11 kcal/mol.
Turning to GGTAGCACGTGAGCAG, the “relative binding free energy” value was 0.24 kcal/mol.
For CTCGTCACGTGAGTTG, the “relative binding free energy” value stood at 0.47 kcal/mol.
The figure for GGAGTCACGTGTGATC is 0.25 kcal/mol; for TGAGGCACGTGTTTTC it is -0.07 kcal/mol; for ATAAACACGTGGTTGA it is -0.01 kcal/mol.
The figure for AGGGTCACGTGCGATG is 0.19 kcal/mol.
To GTTTGCACGTGTTAGG belongs 0.14 kcal/mol; to GATTTCACGTGTGAGT, 0.51 kcal/mol.
In the case of TTTATCACGTGAGCTG, the “relative binding free energy” value amounted to 0.21 kcal/mol.
To ATTCGCACGTGGGATA belongs -0.16 kcal/mol; to AAGGGCACGTGTTGCG, -0.16 kcal/mol.
Regarding TGCGGCACGTGTAATG, the “relative binding free energy” value worked out at 0.06 kcal/mol.
The figure for AGTGACACGTGCTTTT is -0.13 kcal/mol; for GTCTACACGTGGTGGT it is 0.14 kcal/mol; for AATCACACGTGTTGTT it is 0.16 kcal/mol.
The figure for TTTGTCACGTGCAGAC is 0.18 kcal/mol; for GGTTTCACGTGTGCGT it is 0.27 kcal/mol; for ACGTGCACGTGGTATA it is -0.1 kcal/mol.
The figure for ATTGACACGTGTGAGG is -0.15 kcal/mol; for GTCGCCACGTGGAGGT it is 0.03 kcal/mol; for TAGTACACGTGGTCAG it is -0.03 kcal/mol.
As for GAAAGCACGTGTCGGG, the “relative binding free energy” value turned out to be 0.06 kcal/mol.
With GGTATCACGTGGTGCG, the “relative binding free energy” value amounted to 0.08 kcal/mol.
The figure for TCGTTCACGTGGCGGT is 0.27 kcal/mol; for TAAAACACGTGGGGGC it is 0.04 kcal/mol; for TGATGCACGTGTATTA it is 0.03 kcal/mol.
As for ATATGCACGTGTGATA, the “relative binding free energy” value stood at 0.05 kcal/mol.
To GTGTGCACGTGCTGTT belongs 0.06 kcal/mol.
With CTGGTCACGTGTAGTT, the “relative binding free energy” value is 0.19 kcal/mol.
Regarding ATCTACACGTGGGTAG, the “relative binding free energy” value stood at 0.04 kcal/mol.
Turning to GCTGGCACGTGTTGCT, the “relative binding free energy” value was -0.02 kcal/mol.
To TTTGTCACGTGGCTTA belongs -0.1 kcal/mol.
